Experimental data: PMC10520260
These are yes or no findings as the source states them, for the method shown. For part of these data: In cells and extracts the contact can be indirect. Some binding calls cover weakened binding; strength is not graded here. Values belong to the binder of their own block, whether it stands above or below them.

Legend:
[1] = target: T1, b2(1–167)-Tim50(366–476), IMS-targeted PBD of Tim50 (yeast) (UniProt P00175+Q02776); assay: co-IP; digitonin-solubilised mitochondria of 50FL and 50split cells (1% digitonin, 20 mM TRIS/HCl, 80 mM KCl, 10% glycerol, pH 8.0, 4°C); affinity-purified antibodies against Tim50N, Tim50C or Tim23 prebound to Protein A Sepharose; immunoblot
T1 sequence: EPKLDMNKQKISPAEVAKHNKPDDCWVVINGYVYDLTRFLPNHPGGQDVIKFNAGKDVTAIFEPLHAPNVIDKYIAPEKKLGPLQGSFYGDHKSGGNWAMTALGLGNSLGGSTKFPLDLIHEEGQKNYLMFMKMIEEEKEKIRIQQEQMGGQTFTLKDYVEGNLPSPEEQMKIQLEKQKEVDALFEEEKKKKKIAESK

[2] = target: T2, Tim23 (yeast (endogenous in YPH499 mitochondria)) (UniProt P32897); assay: as above
T2 sequence: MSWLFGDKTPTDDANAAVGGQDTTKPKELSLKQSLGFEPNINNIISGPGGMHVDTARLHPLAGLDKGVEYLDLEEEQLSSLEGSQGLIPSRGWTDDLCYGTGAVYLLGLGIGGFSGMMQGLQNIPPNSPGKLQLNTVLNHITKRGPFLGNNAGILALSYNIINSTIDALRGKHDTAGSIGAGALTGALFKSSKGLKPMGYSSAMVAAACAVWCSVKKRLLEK

[3] = target: T3, Tim50(1–476), full-length wild-type Tim50 (yeast) (UniProt Q02776); assay: as above
T3 sequence: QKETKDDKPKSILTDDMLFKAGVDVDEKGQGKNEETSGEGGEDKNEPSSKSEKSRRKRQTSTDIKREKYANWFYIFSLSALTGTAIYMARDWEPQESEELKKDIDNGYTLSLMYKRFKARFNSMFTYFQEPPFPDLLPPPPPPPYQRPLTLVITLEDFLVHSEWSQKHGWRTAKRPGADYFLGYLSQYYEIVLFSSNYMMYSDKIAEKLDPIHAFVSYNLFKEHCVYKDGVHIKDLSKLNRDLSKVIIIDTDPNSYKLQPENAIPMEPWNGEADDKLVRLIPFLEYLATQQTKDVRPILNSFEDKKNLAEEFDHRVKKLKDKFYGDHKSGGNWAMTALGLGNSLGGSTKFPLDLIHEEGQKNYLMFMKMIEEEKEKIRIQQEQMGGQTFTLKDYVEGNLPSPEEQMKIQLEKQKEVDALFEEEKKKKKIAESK

[4] = target: T4, Tim50(1–370) (yeast) (UniProt Q02776); assay: as above
T4 sequence: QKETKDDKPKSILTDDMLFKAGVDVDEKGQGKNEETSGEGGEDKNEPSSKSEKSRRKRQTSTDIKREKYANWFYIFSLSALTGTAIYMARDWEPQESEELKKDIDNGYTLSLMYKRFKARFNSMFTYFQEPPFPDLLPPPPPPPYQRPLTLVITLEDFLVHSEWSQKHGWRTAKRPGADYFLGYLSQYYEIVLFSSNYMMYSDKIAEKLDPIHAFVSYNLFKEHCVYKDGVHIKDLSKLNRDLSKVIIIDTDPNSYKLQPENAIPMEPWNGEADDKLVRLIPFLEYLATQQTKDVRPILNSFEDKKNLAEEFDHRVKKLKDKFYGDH

[5] = target: T5, TOM complex (yeast (endogenous in YPH499 mitochondria)) (UniProt P23644+P49334+P35180+P80967+P33448+P53507); assay: native gel or EMSA; ^35S-labelled Oxa1 precursor imported at 25°C into 50FL and 50split mitochondria without membrane potential; 1% digitonin; BN-PAGE (4–16%) and autoradiography
T5 sequence 1: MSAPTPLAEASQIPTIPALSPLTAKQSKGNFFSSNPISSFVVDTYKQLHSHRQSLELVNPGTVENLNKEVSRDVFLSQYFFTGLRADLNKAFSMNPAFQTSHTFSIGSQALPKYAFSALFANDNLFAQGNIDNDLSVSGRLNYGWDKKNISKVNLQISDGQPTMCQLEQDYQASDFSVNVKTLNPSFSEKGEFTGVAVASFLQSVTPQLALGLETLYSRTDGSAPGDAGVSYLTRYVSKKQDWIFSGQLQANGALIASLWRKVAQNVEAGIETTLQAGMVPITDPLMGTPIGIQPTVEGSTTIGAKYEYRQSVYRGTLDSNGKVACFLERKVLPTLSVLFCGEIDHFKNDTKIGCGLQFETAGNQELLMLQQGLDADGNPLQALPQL
T5 sequence 2: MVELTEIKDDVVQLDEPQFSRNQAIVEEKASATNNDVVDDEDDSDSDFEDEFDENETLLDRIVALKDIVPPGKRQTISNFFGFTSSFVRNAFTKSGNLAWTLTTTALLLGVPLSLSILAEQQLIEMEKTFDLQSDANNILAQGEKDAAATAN
T5 sequence 3: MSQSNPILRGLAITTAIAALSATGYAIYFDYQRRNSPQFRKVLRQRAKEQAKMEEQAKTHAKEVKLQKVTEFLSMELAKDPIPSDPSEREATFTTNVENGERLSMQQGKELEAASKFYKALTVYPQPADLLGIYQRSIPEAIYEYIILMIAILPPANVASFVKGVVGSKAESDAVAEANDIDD
T5 sequence 4: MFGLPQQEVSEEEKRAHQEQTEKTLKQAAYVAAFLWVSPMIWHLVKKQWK
T5 sequence 5: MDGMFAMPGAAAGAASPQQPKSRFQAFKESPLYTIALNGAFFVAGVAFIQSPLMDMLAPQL
T5 sequence 6: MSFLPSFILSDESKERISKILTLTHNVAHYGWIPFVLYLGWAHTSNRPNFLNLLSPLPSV

[6] = target: T3, Tim50(1–476), full-length wild-type Tim50 (yeast); assay: cross-linking; ^35S-labelled precursor imported into isolated 50FL and 50split mitochondria without membrane potential; 50 μM DFDNB, 30 min on ice; solubilised in 1% SDS, diluted in Triton X-100, immunoprecipitated with Tim50N or Tim50C antibodies; autoradiography
[7] = target: T1, b2(1–167)-Tim50(366–476), IMS-targeted PBD of Tim50 (yeast); assay: as above
[8] = target: T4, Tim50(1–370) (yeast); assay: as above

binding [1]: no binding
binding [2]: binds
B1: Tim50(1–370) (domain or fragment, UniProt Q02776 44-370)
chain: T4 sequence

binding [3]: binds
binding [1]: no binding
binding [4]: binds
B2: Tim23 (protein, UniProt P32897 1-222)
chain: T2 sequence

binding [2]: no binding
binding [4]: no binding
B3: b2(1–167)-Tim50(366–476), IMS-targeted PBD of Tim50 (domain or fragment, UniProt P00175 81-167; Q02776 366-476)
chain: T1 sequence

binding [3]: binds
binding [1]: no binding
binding [2]: binds
binding [4]: binds
B4: Tim17 (protein, UniProt P39515 1-158)
chain: MSADHSRDPCPIVILNDFGGAFAMGAIGGVVWHGIKGFRNSPLGERGSGAMSAIKARAPVLGGNFGVWGGLFSTFDCAVKAVRKREDPWNAIIAGFFTGGALAVRGGWRHTRNSSITCACLLGVIEGVGLMFQRYAAWQAKPMAPPLPEAPSSQPLQA

binding [5]: binds
binding [6]: binds
binding [7]: no binding
binding [8]: binds
B5: Oxa1 precursor (protein, UniProt P39952 1-402)
chain: MFKLTSRLVTSRFAASSRLATARTIVLPRPHPSWISFQAKRFNSTGPNANDVSEIQTQLPSIDELTSSAPSLSASTSDLIANTTQTVGELSSHIGYLNSIGLAQTWYWPSDIIQHVLEAVHVYSGLPWWGTIAATTILIRCLMFPLYVKSSDTVARNSHIKPELDALNNKLMSTTDLQQGQLVAMQRKKLLSSHGIKNRWLAAPMLQIPIALGFFNALRHMANYPVDGFANQGVAWFTDLTQADPYLGLQVITAAVFISFTRLGGETGAQQFSSPMKRLFTILPIISIPATMNLSSAVVLYFAFNGAFSVLQTMILRNKWVRSKLKITEVAKPRTPIAGASPTENMGIFQSLKHNIQKARDQAERRQLMQDNEKKLQESFKEKRQNSKIKIVHKSNFINNKK
modifications: ^35S-methionine label
